# Laboratory results reported in PubChem BioAssay (NCATS).
# Inconclusive means that the source gave no clear call. Such entries were picked first, then a sample of the others. For part of these data: Potencies beside an inconclusive call are fits to weak or partial responses and may not hold up. Calls of active or inactive are those of the source. Unless noted, calls come from the whole dose curve; as a rule, active = well fitted curve in the direction sought with a large enough effect; inconclusive = small, poorly fitted or top-dose-only effect, or another doubt; inactive = no such curve, though single readings can be large; an effect the other way counts as inactive or inconclusive.
# Legend:
# [1] = target: Cytochrome P450 2D6 (Homo sapiens) (UniProt P10635); test: qHTS Assay for Inhibitors and Substrates of Cytochrome P450 2D6 (AID 891);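 note: luciferin methyl ether substrate demethylated by CYP2D6 with NADPH regeneration; nearly all actives have a fitted effect of over 60% in size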
# Sequence of UniProt P10635 (P10635 whole entry, looked up): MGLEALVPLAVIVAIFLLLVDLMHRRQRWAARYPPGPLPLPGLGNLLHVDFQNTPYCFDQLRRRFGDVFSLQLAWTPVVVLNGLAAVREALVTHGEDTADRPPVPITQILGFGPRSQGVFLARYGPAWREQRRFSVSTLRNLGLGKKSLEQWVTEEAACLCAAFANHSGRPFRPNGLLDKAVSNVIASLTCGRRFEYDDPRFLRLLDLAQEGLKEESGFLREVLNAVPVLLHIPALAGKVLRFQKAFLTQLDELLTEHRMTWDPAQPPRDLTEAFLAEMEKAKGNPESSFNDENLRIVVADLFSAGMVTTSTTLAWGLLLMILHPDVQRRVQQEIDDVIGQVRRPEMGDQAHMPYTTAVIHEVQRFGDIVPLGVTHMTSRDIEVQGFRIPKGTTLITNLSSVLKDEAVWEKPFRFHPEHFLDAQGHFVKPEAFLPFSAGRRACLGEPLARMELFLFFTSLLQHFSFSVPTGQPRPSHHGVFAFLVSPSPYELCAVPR
# Method in brief: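 Luminescent read-out of luciferin formed by 5 nM human CYP2D6 demethylating 30 uM Luciferin-ME EGE (Km level) over 60 min at room temperature after NADPH regeneration addition. Data normalized to full inhibition by 1.43 uM quinidine.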
# [2] = qHTS Assay for Identification of Small Molecule Antagonists for NFkB Signaling Pathway (AID 895; active = well fitted inhibition curve with a large enough effect in the signal ratio, with a control signal flat, not every such curve was filed as active; inconclusive = small, poorly fitted or top-dose-only effect, or effect the other way, or a change in a side signal; the % refers to the signal ratio); conditions: NFkB beta-lactamase reporter cells, FRET ratio 460/530
# Method in brief: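 Beta-lactamase reporter read-out (460 and 530 nm emission ratio, 405 nm excitation, 2 hrs substrate loading RT) after 5 hr stimulation with 10 pM TNF alpha in compound-treated NFkB-bla ME-180 cells in low-serum medium.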
# [3] = Cell Viability - LYMP2-001 (AID 921); conditions: LYMP2-001 lymphoblastoid cell viability; activity change, negative = cytotoxic: at 92.2 µM (top of the series); note: nearly all actives have a fitted effect of over 70% in size
# Method in brief: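 Cellular ATP loss read by luciferase luminescence after 24 h compound exposure at 37 C in complete medium. LYMP2-001 lymphoblastoid cells, 2500/well; qHTS concentration-response data fitted with Hill equation for AC50.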
# [4] = MultiTox-Fluor Cytotoxicity Assay - LYMP1-001 - Dead Cells (AID 946); conditions: LYMP1-001 lymphoblastoid cells, dead-cell protease fluorescence; cytotoxicity (dead cells): at 92.2 µM (top of the series)
# Method in brief: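 In this qHTS, 15 uM tetraoctylammonium bromide defined 100% and DMSO defined basal activity. Lymphoblastoid cells (LYMP1-001, 2500 per well) received compound for 16 hr at 37 C before a fluorogenic dead-cell substrate readout at 485/520 nm.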
# [5] = MultiTox-Fluor Cytotoxicity Assay - LYMP1-002 - Dead Cells (AID 960); conditions: LYMP1-002 lymphoblastoid cells, dead-cell protease fluorescence; cytotoxicity (dead cells): at 46.1 µM (top of the series); note: nearly all actives have a fitted effect of over 60% in size
# Method in brief: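 Readout: fluorescence at 485/520 from cell-impermeant bis-AAF-R110 cleaved by proteases leaking from damaged cells. LYMP1-002 lymphoblastoid line, 16 hr compound treatment at 37 C, concentration-response in qHTS format; Hill-equation AC50 values.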
# [6] = MultiTox-Fluor Cytotoxicity Assay - LYMP1-003 - Dead Cells (AID 961);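 note: cells exposed to compound for 16 h at 37 °C; nearly all actives have a fitted effect of over 70% in size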
# Method in brief: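 Acute toxicity is scored as increased dead-cell protease activity in human lymphoblastoid LYMP1-003 cells after 16 h compound exposure in complete culture medium. Activity is normalized to DMSO basal and 15 uM tetraoctylammonium bromide as full response.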
# [7] = Cell Viability - LYMP1-003 - Assay at 40 hr (AID 964); note: nearly all actives have a fitted effect of over 60% in size
# Method in brief: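 LYMP1-003 lymphoblastoid cells, 2500/well; 5 hr preincubation, 40 hr compound exposure, 37 C; CellTiter-Glo 30 min RT; luminescence; Hill-fit AC50. Positive control tetraoctylammonium bromide.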
# [8] = Cell Viability - LYMP2-004 (AID 966); conditions: LYMP2-004 lymphoblastoid cell viability, qHTS; activity change, negative = cytotoxicity: at 92.2 µM (top of the series); note: nearly all actives have a fitted effect of over 65% in size
# Method in brief: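 Luminescent ATP read-out (CellTiter-Glo, 30 min RT) after 24 hr compound exposure at 37 C; 2500 lymphoblastoid cells/well, complete medium. Decrease in ATP = cytotoxicity; AC50 from standard Hill model.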
# [9] = Cell Viability - LYMP2-005 (AID 967)
# Method in brief: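 LYMP2-005 human lymphoblastoid cells (2500/well) were treated with compounds for 24 h at 37 C. Intracellular ATP was then measured by CellTiter-Glo luminescence after 30 min at room temperature. AC50 values came from Hill-equation fits of qHTS concentration-response data.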
# [10] = Cell Viability - LYMP2-009 (AID 968); note: nearly all actives have a fitted effect of over 55% in size
# [11] = Cell Viability - LYMP2-011 (AID 969); conditions: LYMP2-011 lymphoblastoid cells viability; viability change, negative = cytotoxic: at 92.2 µM (top of the series); note: nearly all actives have a fitted effect of over 60% in size
# Method in brief: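 Luminescent ATP read-out (CellTiter-Glo, 30 min RT) after 24 hr compound exposure at 37 C in human lymphoblastoid cells, 2500 cells/well. Decreasing ATP indicates cytotoxicity; AC50 from standard Hill fit.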
# [12] = Cell Viability - LYMP2-013 (AID 970); conditions: LYMP2-013 lymphoblastoid cells viability; activity change, negative = cytotoxic: at 92.2 µM (top of the series); note: nearly all actives have a fitted effect of over 55% in size
# Method in brief: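 CellTiter-Glo luminescence (cellular ATP) read after 30 min at RT. Cells: human lymphoblastoid line, 2500/well, 24 hr compound exposure at 37 C. Tetraoctylammonium bromide positive control; AC50 via standard Hill fit of qHTS titrations.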
# [13] = Cell Viability - LYMP2-017 (AID 972); note: nearly all actives have a fitted effect of over 55% in size
# Method in brief: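 Luminescent ATP read-out (CellTiter-Glo, 30 min RT) reports viable cell number. Cells: human lymphoblastoid line, 2500 per well, 5 hr preincubation, 24 hr compound exposure at 37 C. AC50 is derived from qHTS concentration-response data using the standard Hill model.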
# [14] = Cell Viability - LYMP2-019 (AID 973); note: nearly all actives have a fitted effect of over 55% in size
# Method in brief: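 qHTS, 1536-well; 2500 cells/well; 5 hr pre-incubation, 24 hr compound exposure, 37 C; CellTiter-Glo added, 30 min RT; luminescence read; AC50 via standard Hill equation.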
# [15] = Cell Viability - LYMP2-021 (AID 974)
# Method in brief: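 ATP luminescence (CellTiter-Glo, 30 min RT) after 24 h compound exposure at 37 C; 2500 human lymphoblastoid cells/well, 5 h settle beforehand. Cytotoxicity = concentration-dependent ATP drop, AC50 by Hill fit.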
# [16] = Cell Viability - LYMP2-023 (AID 975); note: nearly all actives have a fitted effect of over 55% in size
# Method in brief: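 CellTiter-Glo luminescence after 30 min at room temperature; decrease in intracellular ATP reflects toxicity. Cells: human lymphoblastoid line, 2500/well, 24 hr compound exposure at 37 C. AC50 fitted to standard Hill equation from concentration-response.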
# [17] = Cell Viability - LYMP2-002 (AID 977); conditions: LYMP2-002 lymphoblastoid cell viability, qHTS; activity change, negative = cytotoxic: at 92.2 µM (top of the series)
# Method in brief: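 Human lymphoblastoid cells (2500/well) in complete medium were preincubated 5 hr at 37 C, then exposed to compounds for 24 hr at 37 C. Intracellular ATP was read by CellTiter-Glo luminescence; AC50 came from Hill-equation concentration-response fits.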
# [18] = Cell Viability - LYMP2-006 (AID 978); note: nearly all actives have a fitted effect of over 60% in size
# Method in brief: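 Potency values are Hill-fit AC50s for decreases in intracellular ATP (CellTiter-Glo luminescence). LYMP2-006 lymphoblastoid cells, 2500 per well, were exposed to compound in complete culture medium for 24 hr at 37 C.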
# [19] = Cell Viability - LYMP2-007 (AID 979)
# Method in brief: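 qHTS cytotoxicity: 2500 cells/well, 5 hr 37 C settle, compound 24 hr 37 C, CellTiter-Glo 30 min RT, luminescence. Decrease in ATP = toxicity. AC50 by standard Hill equation; tetraoctylammonium bromide positive control.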
# [20] = Cell Viability - LYMP2-008 (AID 980); note: nearly all actives have a fitted effect of over 60% in size
# Method in brief: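 Luminescent ATP read-out (CellTiter-Glo, 30 min RT) after 24 hr compound exposure at 37 C of human lymphoblastoid cells in complete medium. Decrease in ATP taken as cytotoxicity; AC50 derived by standard Hill fit of qHTS concentration-response data.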
# [21] = Cell Viability - LYMP2-010 (AID 981); note: nearly all actives have a fitted effect of over 55% in size
# Method in brief: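 qHTS cytotoxicity, 1536-well: 2500 cells/well, 5 hr settle, 24 hr compound at 37 C, CellTiter-Glo 30 min RT, luminescence read. Decrease in ATP = toxicity; AC50 via standard Hill equation. Positive control tetraoctylammonium bromide.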
# [22] = Cell Viability - LYMP2-012 (AID 982)
# [23] = Cell Viability - LYMP2-014 (AID 983); conditions: LYMP2-014 lymphoblastoid cells, viability qHTS; activity change, negative = cytotoxicity: at 92.2 µM (top of the series); note: nearly all actives have a fitted effect of over 50% in size
# Method in brief: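 2500 cells/well, 5 hr 37 C; cpd 24 hr 37 C, complete medium; CellTiter-Glo 30 min RT, luminescence; ATP loss = toxicity; AC50 via Hill eqn; tetraoctylammonium bromide positive control.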
# [24] = Cell Viability - LYMP2-016 (AID 984); conditions: LYMP2-016 lymphoblastoid cell viability, qHTS; activity change, negative = cytotoxicity: at 92.2 µM (top of the series); note: nearly all actives have a fitted effect of over 55% in size
# Method in brief: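 Cytotoxicity was scored by luminescent ATP content (CellTiter-Glo) after 24 h compound exposure at 37 C of a human lymphoblastoid line at 2500 cells/well. Concentration-response data were fitted to the Hill equation for AC50.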
# [25] = Cell Viability - LYMP2-018 (AID 985); conditions: LYMP2-018 lymphoblastoid cells, viability (qHTS); activity change, negative = cytotoxicity: at 92.2 µM (top of the series); note: nearly all actives have a fitted effect of over 50% in size
# Method in brief: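 2500 cells/well; 5 hr 37 C; cmpd 24 hr 37 C, complete medium; CellTiter-Glo 30 min RT; luminescence. Tetraoctylammonium bromide positive control. AC50 via Hill fit.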
# [26] = Cell Viability - LYMP2-020 (AID 986); note: nearly all actives have a fitted effect of over 55% in size
# Method in brief: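 qHTS, 2500 cells/well; 5 hr then 24 hr compound exposure, 37 C; CellTiter-Glo luminescence after 30 min RT; ATP decrease taken as cytotoxicity; AC50 via Hill equation; tetraoctylammonium bromide positive control.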
# [27] = Cell Viability - LYMP2-022 (AID 987); conditions: LYMP2-022 lymphoblastoid cell viability; viability change, negative = cytotoxic: at 92.2 µM (top of the series); note: nearly all actives have a fitted effect of over 55% in size
# Method in brief: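 Luminescent ATP read-out (CellTiter-Glo, 30 min, RT) after 24 hr, 37 C compound exposure of 2500 human lymphoblastoid cells/well in complete medium. Cytotoxicity taken as concentration-dependent ATP loss; AC50 from standard Hill equation.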
# [28] = Cell Viability - LYMP2-024 (AID 988); note: nearly all actives have a fitted effect of over 60% in size
# Method in brief: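 ATP-based luminescence (CellTiter-Glo, 30 min RT) after 24 h compound exposure at 37 C of 2500 lymphoblastoid cells/well; decrease in ATP taken as cytotoxicity. qHTS concentration-response fitted to standard Hill equation for AC50.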
# [29] = Cell Viability - LYMP2-026 (AID 989); conditions: LYMP2-026 lymphoblastoid cell viability, qHTS; activity change, negative = cytotoxic: at 92.2 µM (top of the series); note: nearly all actives have a fitted effect of over 50% in size
# Method in brief: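 qHTS cytotoxicity: 2500 cells/well, 5 hr 37 C, compound 24 hr 37 C, CellTiter-Glo 30 min RT, luminescence. Tetraoctylammonium bromide positive control. AC50 via standard Hill fit.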
# [30] = Cell Viability - LYMP1-002 - Assay at 40 hr (AID 994); note: nearly all actives have a fitted effect of over 60% in size
# Method in brief: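 qHTS cytotoxicity; 2500 cells/well, 5 hr 37 C settle, compound 40 hr 37 C. CellTiter-Glo, 30 min RT, luminescence (ATP). Concentration-response, Hill fit → AC50. Pos. ctrl tetraoctylammonium bromide.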
# Potency is the fitted concentration of half-maximal effect; tags give direction and shape of the fitted curve or compound fluorescence and quenching.
smiles,measurement,setting,value
CN(C)CCC=C1c2ccccc2CCc2ccccc21,Potency,[1],active: 7.94 µM
same,Potency,[2],"inconclusive: 5.01 µM [inhibitor, single point] [stimulated with 10 pM TNF alpha]"
same,Potency,[3],"inconclusive: 31.6 µM [cytotoxic, partial curve, poor fit]"
same,Potency,[4],"inconclusive: 50.1 µM [cytotoxic, partial curve]"
same,Potency,[5],active: 25.1 µM
same,Potency,[6],"inconclusive: 50.1 µM [cytotoxic, partial curve]"
same,Potency,[7],"inconclusive: 50.1 µM [cytotoxic, partial curve, poor fit]"
same,Potency,[8],"inconclusive: 31.6 µM [cytotoxic, partial curve, poor fit]"
same,Potency,[9],"inconclusive: 15.8 µM [cytotoxic, partial curve, poor fit]"
same,Potency,[10],"inconclusive: 50.1 µM [cytotoxic, single point]"
same,Potency,[11],"inconclusive: 50.1 µM [cytotoxic, partial curve]"
same,Potency,[12],"inconclusive: 50.1 µM [cytotoxic, partial curve, poor fit]"
same,Potency,[13],"inconclusive: 39.8 µM [cytotoxic, partial curve]"
same,Potency,[14],"inconclusive: 39.8 µM [cytotoxic, partial curve, poor fit]"
same,Potency,[15],"inconclusive: 50.1 µM [cytotoxic, partial curve]"
same,Potency,[16],"inconclusive: 50.1 µM [cytotoxic, partial curve, poor fit]"
same,Potency,[17],"inconclusive: 79.4 µM [cytotoxic, single point]"
same,Potency,[18],"inconclusive: 50.1 µM [cytotoxic, partial curve]"
same,Potency,[19],"inconclusive: 50.1 µM [cytotoxic, partial curve]"
same,Potency,[20],"inconclusive: 50.1 µM [cytotoxic, partial curve]"
same,Potency,[21],"inconclusive: 39.8 µM [cytotoxic, partial curve, poor fit]"
same,Potency,[22],"inconclusive: 39.8 µM [cytotoxic, partial curve]"
same,Potency,[23],"inconclusive: 50.1 µM [cytotoxic, partial curve, poor fit]"
same,Potency,[24],"inconclusive: 50.1 µM [cytotoxic, single point]"
same,Potency,[25],"inconclusive: 39.8 µM [cytotoxic, partial curve, poor fit]"
same,Potency,[26],"inconclusive: 50.1 µM [cytotoxic, partial curve, poor fit]"
same,Potency,[27],"inconclusive: 39.8 µM [cytotoxic, partial curve]"
same,Potency,[28],"inconclusive: 50.1 µM [cytotoxic, partial curve, poor fit]"
same,Potency,[29],"inconclusive: 79.4 µM [cytotoxic, partial curve, poor fit]"
same,Potency,[30],"inconclusive: 39.8 µM [cytotoxic, partial curve]"
